# Data: the supplement of paper PMC8728848
# This is one part of the list.
# B1: LecB PA7 (Pseudomonas aeruginosa) (protein)
# chain: MATQGVFTLPANTRFGVTAFANSSATQTVKVLVNNETAATFTGQSTNNAVIGSQVLNSGGGGKVQIQVSVNGRSSDLVSAQVILANELNVALVGSEDSTDNDYNDAVVVINWPLG
# What was measured:
# Experiment in all cases: glycan array binding signal (z-score within array); higher = stronger binding
# Conditions in all cases: glycan notation: IUPAC condensed, linker removed
# Gal(a1-3)Gal(b1-3)GlcNAc = biological target: Gal(a1-3)Gal(b1-3)GlcNAc
# Method in brief: (§1)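 Negative Z-scores can be read as non-binding. The Z-score is calculated within each array and then averaged across arrays of one protein sequence at different concentrations or buffers and across linkers. Arrays, 3228 in all, were curated from the Consortium for Functional Glycomics database and kept only where the protein sequence was available.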
# [1] = biological target: Gal(a1-3)Gal(b1-3)GlcNAc(b1-2)Man
# Method in brief: as §1
# [2] = biological target: Gal(a1-3)Gal(b1-3)GlcNAc(b1-2)Man(a1-3)[Gal(a1-3)Gal(b1-3)GlcNAc(b1-2)Man(a1-6)]Man(b1-4)GlcNAc(b1-4)GlcNAc
# Method in brief: as §1
# [3] = biological target: Gal(a1-3)Gal(b1-3)GlcNAc(b1-3)GalNAc
# Method in brief: as §1
# [4] = biological target: Gal(a1-3)Gal(b1-3)GlcNAc(b1-6)GalNAc
# Method in brief: as §1
# [5] = biological target: Gal(a1-3)Gal(b1-3)[Fuc(a1-4)]GlcNAc(b1-2)Man(a1-3)[Gal(a1-3)Gal(b1-3)[Fuc(a1-4)]GlcNAc(b1-2)Man(a1-6)]Man(b1-4)GlcNAc(b1-4)GlcNAc
# Method in brief: as §1
# Gal(a1-3)Gal(b1-4)Glc = biological target: Gal(a1-3)Gal(b1-4)Glc
# Method in brief: as §1
# Gal(a1-3)Gal(b1-4)GlcNAc = biological target: Gal(a1-3)Gal(b1-4)GlcNAc
# Method in brief: as §1
# [6] = biological target: Gal(a1-3)Gal(b1-4)GlcNAc(b1-2)Man
# Method in brief: as §1
# [7] = biological target: Gal(a1-3)Gal(b1-4)GlcNAc(b1-2)Man(a1-3)[Gal(a1-3)Gal(b1-4)GlcNAc(b1-2)Man(a1-6)]Man(b1-4)GlcNAc(b1-4)GlcNAc
# Method in brief: as §1
# [8] = biological target: Gal(a1-3)Gal(b1-4)GlcNAc(b1-3)GalNAc
# Method in brief: as §1
# [9] = biological target: Gal(a1-3)Gal(b1-4)GlcNAc(b1-6)GalNAc
# Method in brief: as §1
# [10] = biological target: Gal(a1-3)Gal(b1-4)[Fuc(a1-3)]GlcNAc
# Method in brief: as §1
# [11] = biological target: Gal(a1-3)Gal(b1-4)[Fuc(a1-3)]GlcNAc(b1-2)Man(a1-3)[Gal(a1-3)Gal(b1-4)[Fuc(a1-3)]GlcNAc(b1-2)Man(a1-6)]Man(b1-4)GlcNAc(b1-4)GlcNAc
# Method in brief: as §1
# Gal(a1-3)GalNAc = biological target: Gal(a1-3)GalNAc
# Method in brief: as §1
# [12] = biological target: Gal(a1-3)[Gal(a1-4)]Gal(b1-4)GlcNAc
# Method in brief: as §1
# [13] = biological target: Gal(a1-4)Gal(b1-3)GlcNAc(b1-2)Man(a1-3)[Gal(a1-4)Gal(b1-3)GlcNAc(b1-2)Man(a1-6)]Man(b1-4)GlcNAc(b1-4)GlcNAc
# Method in brief: as §1
# Gal(a1-4)Gal(b1-4)Glc = biological target: Gal(a1-4)Gal(b1-4)Glc
# Method in brief: as §1
# Gal(a1-4)Gal(b1-4)GlcNAc = biological target: Gal(a1-4)Gal(b1-4)GlcNAc
# Method in brief: as §1
# [14] = biological target: Gal(a1-4)Gal(b1-4)GlcNAc(b1-2)Man(a1-3)[Gal(a1-4)Gal(b1-4)GlcNAc(b1-2)Man(a1-6)]Man(b1-4)GlcNAc(b1-4)GlcNAc
# Method in brief: as §1
# [15] = biological target: Gal(a1-4)Gal(b1-4)GlcNAc(b1-3)Gal(b1-4)Glc
# Method in brief: as §1
# Gal(a1-4)GlcNAc = biological target: Gal(a1-4)GlcNAc
# Method in brief: as §1
# Gal(a1-6)Glc = biological target: Gal(a1-6)Glc
# Method in brief: as §1
# Gal(b1-2)Gal = biological target: Gal(b1-2)Gal
# Method in brief: as §1
# Gal(b1-3)Gal = biological target: Gal(b1-3)Gal
# Method in brief: as §1
# Gal(b1-3)Gal(b1-4)GlcNAc = biological target: Gal(b1-3)Gal(b1-4)GlcNAc
# Method in brief: as §1
# Gal(b1-3)GalNAc = biological target: Gal(b1-3)GalNAc
# Method in brief: as §1
# [16] = biological target: Gal(b1-3)GalNAc(a1-3)[Fuc(a1-2)]Gal(b1-4)Glc
# Method in brief: as §1
# [17] = biological target: Gal(b1-3)GalNAc(a1-3)[Fuc(a1-2)]Gal(b1-4)GlcNAc
# Method in brief: as §1
# Gal(b1-3)GalNAc(b1-3)Gal = biological target: Gal(b1-3)GalNAc(b1-3)Gal
# Method in brief: as §1
# [18] = biological target: Gal(b1-3)GalNAc(b1-3)Gal(a1-4)Gal(b1-4)Glc
# Method in brief: as §1
# [19] = biological target: Gal(b1-3)GalNAc(b1-4)Gal(b1-4)Glc
# Method in brief: as §1
# [20] = biological target: Gal(b1-3)GalNAc(b1-4)[Neu5Ac(a2-3)]Gal(b1-4)Glc
# Method in brief: as §1
# Gal(b1-3)GlcNAc = biological target: Gal(b1-3)GlcNAc
# Method in brief: as §1
# [21] = biological target: Gal(b1-3)GlcNAc(a1-3)Gal(b1-4)GlcNAc
# Method in brief: as §1
# [22] = biological target: Gal(b1-3)GlcNAc(a1-6)Gal(b1-4)GlcNAc
# Method in brief: as §1
# Gal(b1-3)GlcNAc(b1-2)Man = biological target: Gal(b1-3)GlcNAc(b1-2)Man
# Method in brief: as §1
# [23] = biological target: Gal(b1-3)GlcNAc(b1-2)Man(a1-3)[Gal(b1-3)GlcNAc(b1-2)Man(a1-6)]Man(b1-4)GlcNAc(b1-4)GlcNAc
# Method in brief: as §1
binder,measurement,setting,value
B1,glycan array binding signal (z-score),Gal(a1-3)Gal(b1-3)GlcNAc,-0.486
same,glycan array binding signal (z-score),[1],-0.498
same,glycan array binding signal (z-score),[2],0.509
same,glycan array binding signal (z-score),[3],-0.498
same,glycan array binding signal (z-score),[4],-0.493
same,glycan array binding signal (z-score),[5],1.57
same,glycan array binding signal (z-score),Gal(a1-3)Gal(b1-4)Glc,-0.483
same,glycan array binding signal (z-score),Gal(a1-3)Gal(b1-4)GlcNAc,-0.507
same,glycan array binding signal (z-score),[6],-0.502
same,glycan array binding signal (z-score),[7],-0.479
same,glycan array binding signal (z-score),[8],-0.511
same,glycan array binding signal (z-score),[9],-0.446
same,glycan array binding signal (z-score),[10],0.615
same,glycan array binding signal (z-score),[11],0.901
same,glycan array binding signal (z-score),Gal(a1-3)GalNAc,-0.505
same,glycan array binding signal (z-score),[12],-0.506
same,glycan array binding signal (z-score),[13],-0.121
same,glycan array binding signal (z-score),Gal(a1-4)Gal(b1-4)Glc,-0.484
same,glycan array binding signal (z-score),Gal(a1-4)Gal(b1-4)GlcNAc,-0.458
same,glycan array binding signal (z-score),[14],-0.486
same,glycan array binding signal (z-score),[15],-0.486
same,glycan array binding signal (z-score),Gal(a1-4)GlcNAc,-0.513
same,glycan array binding signal (z-score),Gal(a1-6)Glc,-0.479
same,glycan array binding signal (z-score),Gal(b1-2)Gal,-0.49
same,glycan array binding signal (z-score),Gal(b1-3)Gal,-0.49
same,glycan array binding signal (z-score),Gal(b1-3)Gal(b1-4)GlcNAc,-0.498
same,glycan array binding signal (z-score),Gal(b1-3)GalNAc,-0.403
same,glycan array binding signal (z-score),[16],-0.487
same,glycan array binding signal (z-score),[17],-0.46
same,glycan array binding signal (z-score),Gal(b1-3)GalNAc(b1-3)Gal,-0.514
same,glycan array binding signal (z-score),[18],-0.485
same,glycan array binding signal (z-score),[19],-0.506
same,glycan array binding signal (z-score),[20],-0.426
same,glycan array binding signal (z-score),Gal(b1-3)GlcNAc,-0.504
same,glycan array binding signal (z-score),[21],-0.51
same,glycan array binding signal (z-score),[22],-0.512
same,glycan array binding signal (z-score),Gal(b1-3)GlcNAc(b1-2)Man,-0.465
same,glycan array binding signal (z-score),[23],0.018
